Experimental data published in the supplement of paper PMC12217912.
The list shows a part of the results. Sequences were assembled here from the parent chain. Values near 0.05 are background.

B1: TEV protease; numbered along this chain (parent)
chain: MGESLFKGPRDYNPISSSICHLTNESDGHTTSLYGIGFGPFIITNKHLFRRNNGTLVVQSLHGVFKVKDTTTLQQHLVDGRDMIIIRMPKDFPPFPQKLKFREPQREERICLVTTNFQTKSMSSMVSDTSCTFPSGDGIFWKHWIQTKDGQCGSPLVSTRDGFIVGIHSASNFTNTNNYFTSVPKNFMELLTNQEAQQWVSGWRLNADSVLWGGHKVFMVKPEEPFQPVKEATQL

Variants of: B1
Experiment: raw area under fraction-flipped curve 0-4 h after induction (AUC4h, not background-subtracted), DNA-recorder readout of cleavage of the substrate (dimensionless); higher = more cleavage of the substrate by the protease variant
Settings: temperature: 34 °C; time window: 0-4 h after rhamnose induction
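Also: Bxb1 expression induced with 0.2% (w/v) L-rhamnose at OD600 near 0.5, cultures sampled hourly, flipped fraction per protease–substrate barcode pair counted by paired-end Illumina sequencing.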

Variant	area with substrate EDLYFQS	area with substrate EELYFQS	area with substrate EFLYFQS	area with substrate EGLYFQS	area with substrate EHLYFQS	area with substrate EILYFQS	area with substrate ELLYFQS	area with substrate ERLYFQS	area with substrate ESLYFQS	area with substrate EWLYFQS	area with substrate EKLYFQS	area with substrate EMLYFQS	area with substrate ETLYFQS	area with substrate EVLYFQS	area with substrate EPLYFQS	area with substrate EQLYFQS	area with substrate EYLYFQS
V200N	0.0963	0.08	0.0617	0.0842	0.0682	0.0609	0.0596	0.0617	0.0548	0.0668	–	–	–	–	–	–	–
K100R	0.124	–	–	0.103	0.141	0.0886	–	0.0864	0.0984	0.0915	0.119	0.111	0.126	0.1	–	–	–
D91A	0.163	0.143	–	–	–	–	–	0.124	0.0979	0.084	0.113	0.119	–	0.149	–	–	–
D91H	0.12	–	–	–	0.113	0.0977	0.085	0.109	0.111	0.0717	0.136	–	0.114	0.104	0.129	0.108	–
G150K	0.0583	0.0534	–	–	0.0475	0.0558	–	0.0649	0.0569	0.0654	0.0665	–	0.0472	0.0577	0.0546	–	0.0694
V220I	0.103	0.101	0.0665	–	–	–	0.0826	0.102	–	0.0859	0.0958	–	0.119	0.106	–	0.0868	–
K221Q	0.136	0.121	0.124	–	0.103	0.0926	–	–	0.0941	–	–	0.0795	–	0.0797	–	0.109	0.0759
D82Y	0.0422	0.0715	–	0.0606	–	0.0472	–	0.0537	–	–	0.0597	–	0.0697	0.0458	–	–	0.0624
